The list shows a part of the results.

The results in this text go back to PMC12820563, “FoxP3 forms a head-to-head dimer in vivo and stabilizes its multimerization on adjacent microsatellites”.

The assay concerns the target T1, MBP-FoxP1dN (Mus musculus, UniProt P58462 326-579).
T1 sequence: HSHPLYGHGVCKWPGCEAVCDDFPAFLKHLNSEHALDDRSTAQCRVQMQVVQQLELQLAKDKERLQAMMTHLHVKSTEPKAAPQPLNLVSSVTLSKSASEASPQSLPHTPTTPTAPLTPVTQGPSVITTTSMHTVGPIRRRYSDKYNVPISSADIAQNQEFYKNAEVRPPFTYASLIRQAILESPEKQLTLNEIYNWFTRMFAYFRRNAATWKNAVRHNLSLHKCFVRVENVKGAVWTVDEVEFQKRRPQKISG
Briefly: PD-seq (MBP pull-down with sequencing); 20 mM Tris-HCl pH 7.5, 100 mM NaCl, 1.5 mM MgCl2, 0.4 uM protein, 0.1 uM dsDNA library, 30 min, room temperature, amylose pull-down; high values mean tight binding. The settings on record: protein: recombinant; tags: His6-MBP; chain copies: 2; dsDNA, one strand shown. The method, boiled down:
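Binding is reads-per-million enrichment of pull-down over input, with replicates pooled. It comes from 30 min room-temperature incubation in Tris pH 7.5 buffer with NaCl and MgCl2 of 0.4 µM His6-MBP-tagged, N-terminally truncated mouse FoxP3 or FoxP1 fragment from E. coli with 0.1 µM Klenow-filled degenerate double-stranded DNA library, followed by amylose resin capture, three washes and Illumina sequencing of the released DNA.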
Consider “GATGATTGTTCTCCCAGCTGATGAATTAACCAAGTCGAGTAAACAAATTTTCCTAATCTTTCTGTTCAAGCGCCATCTAC”, for which the binding signal is 0.826 RPM ratio (pull-down/input).

Consider “GATGATTGTTCTCCCAGCTGATGAATTCTATGACTCGAGTAAACAAATTTTCCTAATCTTTCTGTTCAAGCGCCATCTAC”, for which the binding signal was 0.968 RPM ratio (pull-down/input).

Regarding “GATGATTGTTCTCCCAGCTGATGAATTCTGATTGTCGAGTAAACAAATTTTCCTAATCTTTCTGTTCAAGCGCCATCTAC”, the binding signal is 1.19 RPM ratio (pull-down/input).

“GATGATTGTTCTCCCAGCTGATGAATTAAAGCTCTCGAGTAAACAAATTTTCCTAATCTTTCTGTTCAAGCGCCATCTAC”: the binding signal is 0.891 RPM ratio (pull-down/input).

“GATGATTGTTCTCCCAGCTGATGAATTAATGTCATCGAGTAAACAAATTTTCCTAATCTTTCTGTTCAAGCGCCATCTAC”: the binding signal is 1.3 RPM ratio (pull-down/input).

For the sequence “GATGATTGTTCTCCCAGCTGATGAATTACGAGAGTCGAGTAAACAAATTTTCCTAATCTTTCTGTTCAAGCGCCATCTAC”, the binding signal was 0.91 RPM ratio (pull-down/input).

“GATGATTGTTCTCCCAGCTGATGAATTTTAGGCTTCGAGTAAACAAATTTTCCTAATCTTTCTGTTCAAGCGCCATCTAC”: the binding signal was 0.904 RPM ratio (pull-down/input).

For the sequence “GATGATTGTTCTCCCAGCTGATGAATTTCACAGATCGAGTAAACAAATTTTCCTAATCTTTCTGTTCAAGCGCCATCTAC”, the binding signal was 0.838 RPM ratio (pull-down/input).

On to “GATGATTGTTCTCCCAGCTGATGAATTAGTCAATTCGAGTAAACAAATTTTCCTAATCTTTCTGTTCAAGCGCCATCTAC”, for which the binding signal is 1.09 RPM ratio (pull-down/input).

In the case of “GATGATTGTTCTCCCAGCTGATGAATTGCCATCCTCGAGTAAACAAATTTTCCTAATCTTTCTGTTCAAGCGCCATCTAC”, the binding signal is 0.928 RPM ratio (pull-down/input).

Consider “GATGATTGTTCTCCCAGCTGATGAATTTACGGCTTCGAGTAAACAAATTTTCCTAATCTTTCTGTTCAAGCGCCATCTAC”, for which the binding signal is 1.14 RPM ratio (pull-down/input).

For the sequence “GATGATTGTTCTCCCAGCTGATGAATTATGGGAGTCGAGTAAACAAATTTTCCTAATCTTTCTGTTCAAGCGCCATCTAC”, the binding signal was 0.976 RPM ratio (pull-down/input).

Turning to “GATGATTGTTCTCCCAGCTGATGAATTTCACACGTCGAGTAAACAAATTTTCCTAATCTTTCTGTTCAAGCGCCATCTAC”, the binding signal was 0.844 RPM ratio (pull-down/input).

In the case of “GATGATTGTTCTCCCAGCTGATGAATTCAAAGGCTCGAGTAAACAAATTTTCCTAATCTTTCTGTTCAAGCGCCATCTAC”, the binding signal is 0.876 RPM ratio (pull-down/input).

“GATGATTGTTCTCCCAGCTGATGAATTGCGGATCTCGAGTAAACAAATTTTCCTAATCTTTCTGTTCAAGCGCCATCTAC”: the binding signal was 1.02 RPM ratio (pull-down/input).

In the case of “GATGATTGTTCTCCCAGCTGATGAATTTCTATCGTCGAGTAAACAAATTTTCCTAATCTTTCTGTTCAAGCGCCATCTAC”, the binding signal is 0.923 RPM ratio (pull-down/input).

For the sequence “GATGATTGTTCTCCCAGCTGATGAATTGGAAGAATCGAGTAAACAAATTTTCCTAATCTTTCTGTTCAAGCGCCATCTAC”, the binding signal was 0.898 RPM ratio (pull-down/input).

Consider “GATGATTGTTCTCCCAGCTGATGAATTGCTGCGCTCGAGTAAACAAATTTTCCTAATCTTTCTGTTCAAGCGCCATCTAC”, for which the binding signal is 0.956 RPM ratio (pull-down/input).

In the case of “GATGATTGTTCTCCCAGCTGATGAATTTAGTTGATCGAGTAAACAAATTTTCCTAATCTTTCTGTTCAAGCGCCATCTAC”, the binding signal is 1.34 RPM ratio (pull-down/input).

Regarding “GATGATTGTTCTCCCAGCTGATGAATTAATCGGATCGAGTAAACAAATTTTCCTAATCTTTCTGTTCAAGCGCCATCTAC”, the binding signal was 0.781 RPM ratio (pull-down/input).

For “GATGATTGTTCTCCCAGCTGATGAATTCAGGTAATCGAGTAAACAAATTTTCCTAATCTTTCTGTTCAAGCGCCATCTAC”, the binding signal is 1.38 RPM ratio (pull-down/input).

As for “GATGATTGTTCTCCCAGCTGATGAATTGTAGCAGTCGAGTAAACAAATTTTCCTAATCTTTCTGTTCAAGCGCCATCTAC”, the binding signal was 0.961 RPM ratio (pull-down/input).

For “GATGATTGTTCTCCCAGCTGATGAATTGCTAGGGTCGAGTAAACAAATTTTCCTAATCTTTCTGTTCAAGCGCCATCTAC”, the binding signal was 0.866 RPM ratio (pull-down/input).

As for “GATGATTGTTCTCCCAGCTGATGAATTTTGGGGCTCGAGTAAACAAATTTTCCTAATCTTTCTGTTCAAGCGCCATCTAC”, the binding signal was 0.756 RPM ratio (pull-down/input).

For the sequence “GATGATTGTTCTCCCAGCTGATGAATTACCTCGATCGAGTAAACAAATTTTCCTAATCTTTCTGTTCAAGCGCCATCTAC”, the binding signal was 0.998 RPM ratio (pull-down/input).

Take “GATGATTGTTCTCCCAGCTGATGAATTCCTCGTTTCGAGTAAACAAATTTTCCTAATCTTTCTGTTCAAGCGCCATCTAC”: the binding signal is 0.773 RPM ratio (pull-down/input).

Turning to “GATGATTGTTCTCCCAGCTGATGAATTCAGCGTTTCGAGTAAACAAATTTTCCTAATCTTTCTGTTCAAGCGCCATCTAC”, the binding signal is 0.891 RPM ratio (pull-down/input).

“GATGATTGTTCTCCCAGCTGATGAATTAGCTCGATCGAGTAAACAAATTTTCCTAATCTTTCTGTTCAAGCGCCATCTAC”: the binding signal is 0.866 RPM ratio (pull-down/input).

For “GATGATTGTTCTCCCAGCTGATGAATTTACCCGATCGAGTAAACAAATTTTCCTAATCTTTCTGTTCAAGCGCCATCTAC”, the binding signal was 1.09 RPM ratio (pull-down/input).

For “GATGATTGTTCTCCCAGCTGATGAATTAAGTGGTTCGAGTAAACAAATTTTCCTAATCTTTCTGTTCAAGCGCCATCTAC”, the binding signal is 0.953 RPM ratio (pull-down/input).

As for “GATGATTGTTCTCCCAGCTGATGAATTTCCATCTTCGAGTAAACAAATTTTCCTAATCTTTCTGTTCAAGCGCCATCTAC”, the binding signal is 0.809 RPM ratio (pull-down/input).

On to “GATGATTGTTCTCCCAGCTGATGAATTCGAGGACTCGAGTAAACAAATTTTCCTAATCTTTCTGTTCAAGCGCCATCTAC”, for which the binding signal is 0.74 RPM ratio (pull-down/input).
